The chains are these.
T1: UNK ZnF1-3 (human, UniProt Q9C0B0 31-174)
T1 sequence: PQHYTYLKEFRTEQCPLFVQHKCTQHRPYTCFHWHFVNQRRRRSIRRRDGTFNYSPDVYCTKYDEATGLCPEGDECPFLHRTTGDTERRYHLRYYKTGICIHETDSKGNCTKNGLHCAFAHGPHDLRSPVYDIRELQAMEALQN

B1: chr10:94818082:94818083:+_ENSG00000138190_ENST00000260762|hu_hu|motif|central (ssRNA)
RNA: GGGAGUUCUACAGUCCGACGAUCCUACAUGUGCUGGGACAUACCAUUCACCAAACUUCUCAGCUGUUUCACGACUGUCUCGGUCAACUUCUGUUUGUCUCGAUCAUUCUUCCUGAACUGAGCAAAUAUAUUGUUCUUUUUGCUCAACAGAGGAUUGAGCAUCA
B2: chr11:69548761:69548762:-_ENSMUSG00000005198_ENSMUST00000058470|mus_hu|motif|central (ssRNA)
RNA: GGGAGUUCUACAGUCCGACGAUCAGAUGUCGGUGAGUAGCUGGGAGACGUUGGCGAGUAGCUAGGGGAAGUGGGCGAGUAGCGGGGGGAAGUGGGUGAGUAGCUGGGAGAGGUGGGCGAGUAGCUGGGAGAGGUGGGCGAGUACAACAGAGGAUUGAGCAUCA
B3: chr8:98731313:98731314:+_ENSG00000147649_ENST00000336273|hu_hu|motif|central (ssRNA)
RNA: GGGAGUUCUACAGUCCGACGAUCAAAAGCUUUUUCCUGUUUUGGACGGGUUUUAGAGGUAUUCACUGGAAGGUCUUCUCGGAUCUCUUUUUCUAAUUCUUCUGUGUCCUGUGCAGUAGAGUUAUCUUCACCUUGCUUCUUCUUCAACAGAGGAUUGAGCAUCA
B4: chr5:65987834:65987835:+_ENSMUSG00000029203_ENSMUST00000142407|mus_mus|motif|central (ssRNA)
RNA: GGGAGUUCUACAGUCCGACGAUCGUUAUUUCACACAUUUCCUUCUUAUCUGAGAAUAUAAAGAACAGUACAAAGUUUUAGCGGCUUAAAAUAAAUAAAGAAAAACUUGUUUCCUUUGGCAUCUUUAUAAAAUAACCUACAGCACAACAGAGGAUUGAGCAUCA
B5: chr2:114674474:114674475:+_ENSG00000115091_ENST00000535589|hu_mus|FALSE|FALSE (ssRNA)
RNA: GGGAGUUCUACAGUCCGACGAUCGUCAUCCACGCCUUUCAUCACCCUCCUCUGGGCUUGGUCACCCACUUUUGCAGACUCUUUAAUGGCAAUACAUGAUGGGAUGAUAAACUGUGGCUCUGUAUUUCCAGCAUAUCCUAGUUUCAACAGAGGAUUGAGCAUCA
B6: chr1:225611761:225611762:-_ENSG00000143815_ENST00000272163|hu_mus|hu_hu_hu_mus_True|38_88 (ssRNA)
RNA: GGGAGUUCUACAGUCCGACGAUCCCAGGCCAUCGGCCUCUGACCACUUCACCAUCGACAAACUUCCUACUUGGCAUUUUCUAAAAUUAGUCUGGCCCAGGUUCCGGGGGAACUCCAGCCACUCCAGGACAGUCACCAGCAGCCCAACAGAGGAUUGAGCAUCA
B7: chr5:95128998:95128999:+_ENSG00000164292_ENST00000379982|hu_mus|FALSE|FALSE (ssRNA)
RNA: GGGAGUUCUACAGUCCGACGAUCAGCUUUUGUUCCCUUUUAAGACCACCACAGUCUUUAAAAGAUAACUAGUAAGAAGCUAUAUGGUGACUUUUAAAACAUAUUGAUUUUAGUUAUAAGAAUUUUUCCUGGAAUCCAGAAGUACAACAGAGGAUUGAGCAUCA
B8: chr12:66249844:66249845:-_ENSMUSG00000047534_ENSMUST00000052201|mus_mus|motif|central (ssRNA)
RNA: GGGAGUUCUACAGUCCGACGAUCUAACAGCUGUCUGCUAGUUCUAUCAGAUGCCUUUCCUUCAGUGAGAAAGUCCUUGCGGACAGCAGAUUUGUAAUGUGACUCUUUAGCAGAAGAUCGAGGUCUCUUUGGUGUGAUAUAACACAACAGAGGAUUGAGCAUCA
B9: chr16:38184571:38184572:+_ENSMUSG00000022812_ENSMUST00000023507|mus_hu|motif|central (ssRNA)
RNA: GGGAGUUCUACAGUCCGACGAUCCAGCUGAUACAUAUACAACUUGACAUAAAUCACAGGGAGCGUCUGUUUGGCUCGACGGUAGUGUCUGGCAACUCUGUAUACUGUUUCCGGAACAUAGUCCAGCACCAGAUUAAGAUAGACCAACAGAGGAUUGAGCAUCA
B10: chr12:73312838:73312839:-_ENSMUSG00000021087_ENSMUST00000021497|mus_hu|FALSE|FALSE (ssRNA)
RNA: GGGAGUUCUACAGUCCGACGAUCUCAGUAUCAAGUACAUAAGUGCAAAUAUCCAGAGUCCGUAAUUGAAUCCAUUAGGAACUACAGAGAAAGUAAUACAAAUUGUAAUAAAGUUAACAUGCUGGUACUUUUUAGUAACCAUACCAACAGAGGAUUGAGCAUCA
B11: chr7:141445308:141445309:+_ENSG00000106028_ENST00000265304|hu_hu|hu_hu_hu_mus_False|88_88 (ssRNA)
RNA: GGGAGUUCUACAGUCCGACGAUCUAUGAUUGUUGUUGCUUGCCGCCUCACAUUAUUUUUAUCCAUGUACUCGCCAUAGUCCACUUUCCCUUCCACAAAUAUACGAGCCCCCUUUUUCACAUACUGAUAUGCCACAUCUCUGAGCAACAGAGGAUUGAGCAUCA
B12: chr2:10580766:10580767:-_ENSG00000115758_ENST00000405333|hu_mus|FALSE|FALSE (ssRNA)
RNA: GGGAGUUCUACAGUCCGACGAUCCUCCUAGCCUUCCAUACUGCAUUGGUGCCAACCCUACUCUCACAAAGACAUCCCAAACUAGCAGUAAGUUAAAUGGUCCCCCCAAAUGCCUUAACACAAGCUAAACUUGCAGGCAAGAGCCAACAGAGGAUUGAGCAUCA
B13: chr7:54825262:54825263:-_ENSG00000132432_ENST00000352861|hu_hu|hu_hu_hu_mus_False|8_18 (ssRNA)
RNA: GGGAGUUCUACAGUCCGACGAUCCUGCCGGCUGGGCUCCACAAACUGCAUUACCUGAUCCAUGUUUGUUGGAUGGCGGAUUGAGAGCGUAGAGACACGUAGCUCAGGAGAGAACCGGAUGGAGGCCCACCGGAACCUGGCAACCAACAGAGGAUUGAGCAUCA
B14: chr2:198351390:198351391:-_ENSG00000144381_ENST00000345042|hu_hu|hu_hu_hu_mus_False|78_78 (ssRNA)
RNA: GGGAGUUCUACAGUCCGACGAUCUCAUUCCCACCCUCCACAGAAAGGCUGCUUCUGUUCUCAUCUGUGGUGACACAGCGCUACAGUCCUGAUGCUCACAGAACAGUAGAGAUGCCUCAGUGAUUUAAGUUGAAAGCAGGACACCAACAGAGGAUUGAGCAUCA
B15: chr2:173053163:173053164:-_ENSMUSG00000038400_ENSMUST00000036248|mus_mus|FALSE|FALSE (ssRNA)
RNA: GGGAGUUCUACAGUCCGACGAUCGAGCUUCUGCAUUCAGACCACACAGAACAUGUAAAUAUUUAUACACAGACAGGAGAACUACCACACGGCCACUCAGCCUGUGUGUCCCCUGACUUCCUCUCUCUUCUCUCUUAAGAAGUGCAACAGAGGAUUGAGCAUCA
B16: chr14:20710596:20710597:-_ENSMUSG00000043004_ENSMUST00000160013|mus_hu|FALSE|FALSE (ssRNA)
RNA: GGGAGUUCUACAGUCCGACGAUCAUCCUGUCGAUAUUGGCUUCCAUCUUAAGCUGCUCUACCAGCUUCCUGGCUUGUGCUAUGCUGGCGGUGUUGUUGCUGGCCAUCGGAGUGCUGGAUAGAUCUUUCAGAAACACUCUUCAGCAACAGAGGAUUGAGCAUCA
B17: 139369022_139369142_3059_CDS_ENSG00000148396_ENST00000313050|human|control|control (ssRNA)
RNA: GGGAGUUCUACAGUCCGACGAUCGUCAGAAUGGGACGGGUUGUACACGUUUACAGGAUUUUCCAAAGUCCUGCUUAAGGUAAAGUCUAGGGCUCCGUAAGUGUCUUCCUGAUGACUGGAAUGGUUUGCCUUAUUACCAUCAGGCAACAGAGGAUUGAGCAUCA
B18: chr16:11966626:11966627:-_ENSG00000103342_ENST00000563468|hu_mus|FALSE|FALSE (ssRNA)
RNA: GGGAGUUCUACAGUCCGACGAUCUUUUAACAUGUGCAGACACACUCCCACACUCAGAAUCAUCUGCCUGGGGGAAAAAGACUAACUAUGCCUAAGAAGAAAAUGAAAAAUAAAAAAAUUCCUGUAGGUUUUCAUUAUUGUAGGCAACAGAGGAUUGAGCAUCA
B19: chr1:157160411:157160412:-_ENSMUSG00000026469_ENSMUST00000027741|mus_hu|FALSE|FALSE (ssRNA)
RNA: GGGAGUUCUACAGUCCGACGAUCGAAUUCAAUCAGAAGAAAGCCACCCCGAUAGAUUCUUAUCAAGGGCCAUAUACUUCUAUCUGUUUCAAGUUUAAAUACAGCGGCAAGCACAAGGGUAAUAUUCAGUACAAUGAAUAUUCCCAACAGAGGAUUGAGCAUCA
B20: chr10:7461220:7461221:+_ENSMUSG00000019794_ENSMUST00000165806|mus_mus|motif|central (ssRNA)
RNA: GGGAGUUCUACAGUCCGACGAUCGACUUCUCCUUCAGCAGCUGGAAAUUCAUGUUGUGCAGCUUGCAAAGAAGUGAUGUCGGGUUUGAAGCUCUCGAGUGUUUUCAUGAUAUCCUUAACUUGCUUAGCUUCCACAUUUAUUUCCAACAGAGGAUUGAGCAUCA
B21: chr2:27436100:27436101:+_ENSG00000138085_ENST00000606999|hu_mus|FALSE|FALSE (ssRNA)
RNA: GGGAGUUCUACAGUCCGACGAUCGAUGGUGCCCUUCUGAUUCAGGCAGCAUCGGGCCUGCAUUAGCUUCGAUGUAUCCUCACAGUAAGCAGCCACUCUGGACAAAUUGUGCAUACCUCCCGGACACAGGGUGCAUAUCUCAGGCAACAGAGGAUUGAGCAUCA
B22: chr9:111179681:111179682:+_ENSMUSG00000046785_ENSMUST00000060711|mus_mus|motif|central (ssRNA)
RNA: GGGAGUUCUACAGUCCGACGAUCGGACUUAACACUAGAGAGCUGAUUUUUGAGUACACCUAGGUUUGAAUCUUGACAUUACGGCGGGUUUACUAGGGUAAAUUACAGUCUGUUUUCUUAACAACAUUCACAUAAUAUUUGAACCAACAGAGGAUUGAGCAUCA

This is one part of the list.

This experiment concerns the target T1, UNK ZnF1-3. In words: nsRBNS (natural sequence RNA bind-n-seq); RBNS binding buffer (assumed for nsRBNS): 25 mM Tris pH 7.5, 150 mM KCl, 3 mM MgCl2, 0.01% Triton X-100, 500 ug/ml BSA, 20 U/ml SUPERase-In, 4 C; UNK is unkempt and MSI1 is Musashi-1; names of the RNAs are library labels; protein concentration not given here; high values mean tight binding.
In turn, B1 gave a binding signal of 0.422 enrichment R.
As for B2, the figure is 1.68 enrichment R; as for B3, 0.326 enrichment R; as for B4, 0.88 enrichment R.
As for B5, the figure is 0.828 enrichment R.
As for B6, the figure is 1.4 enrichment R; as for B7, 1.93 enrichment R; as for B8, 0.738 enrichment R.
The molecule B9 registered a binding signal of 0.869 enrichment R.
As for B10, the figure is 1.05 enrichment R.
As for B11, the figure is 0.784 enrichment R.
As for B12, the figure is 1.39 enrichment R; as for B13, 1.09 enrichment R; as for B14, 1.4 enrichment R.
Molecule B15 came in with a binding signal of 0.911 enrichment R.
As for B16, the figure is 0.576 enrichment R; as for B17, 0.675 enrichment R; as for B18, 2.1 enrichment R.
As to B19, the binding signal is 1.1 enrichment R.
In turn, B20 displayed a binding signal of 0.663 enrichment R.
As for B21, the figure is 0.994 enrichment R.
As for B22, the figure is 0.909 enrichment R.

The values above are taken from publication PMC12136788.
